Among all 370,000 compounds or so, about 150 (0.041%) were called active. Inconclusive results, whose numbers are uncertain, are shown with a selection of clear calls. Calls follow the shape of the dose curve; as a rule, active = well fitted inhibition curve with a large enough effect; inconclusive = small, poorly fitted or top-dose-only effect; inactive = flat fitted curve, though single readings scatter. No potency is given beside an inconclusive call; the fits are too rough.
target: Beta-lactamase (Escherichia coli (strain K12)) (UniProt P00811); assay: qHTS Inhibitors of AmpC Beta-Lactamase (assay with detergent); conditions: AmpC hydrolysis of nitrocefin, absorbance 480 nm, 0.01% Triton; series mostly up to 114 µM; also: nearly all actives have a fitted effect of over 25% in size
UniProt P00811, sequence (P00811 whole entry, looked up): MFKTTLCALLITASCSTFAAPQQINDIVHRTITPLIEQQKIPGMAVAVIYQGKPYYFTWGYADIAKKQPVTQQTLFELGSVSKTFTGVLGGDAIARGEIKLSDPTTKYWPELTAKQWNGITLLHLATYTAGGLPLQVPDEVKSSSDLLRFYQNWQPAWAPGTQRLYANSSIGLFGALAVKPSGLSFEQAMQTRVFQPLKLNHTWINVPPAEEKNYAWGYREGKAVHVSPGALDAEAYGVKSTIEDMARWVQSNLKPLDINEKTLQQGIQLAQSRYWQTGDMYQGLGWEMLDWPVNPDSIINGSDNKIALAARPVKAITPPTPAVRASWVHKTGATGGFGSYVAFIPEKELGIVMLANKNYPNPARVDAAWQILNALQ
How it was run: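 20 mM phosphate pH 7.0 + 0.01% (detergent screen) or 0.0001% Triton X-100; 5.3 nM AmpC reagent; cpd preinc 15 min RT; nitrocefin (800 uM stock) to start; A480 q20 s × 4 min; Activity was normalised to no-enzyme and no-compound control wells.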
Potency is read from the fitted curve at half-maximal effect; tags tell the direction and shape of the fitted curve.

How did the Potency turn out when `Cc1ccc(N2CCN(S(=O)(=O)c3c(C)noc3C)CC2C)cc1` (stereo not given) was run?
The Potency was inconclusive [inhibitor, single point].

With `CCC(=O)Nc1nc(-c2ccc3c(c2)CC(C)N3S(C)(=O)=O)cs1` (stereo not given) as the molecule, how does the Potency read?
The Potency was “inactive”.

For `COc1ccc2c(c1)c(=O)oc1c(C)c(OC(C)C(=O)N[C@@H](Cc3c[nH]c4ccc(O)cc34)C(=O)O)ccc12` (stereo not given in full), which Potency is on record?
Its Potency is inconclusive [inhibitor, partial curve, poor fit].

How did the Potency turn out when `COC(=O)C(Cc1ccccc1)NC(=O)CC(C)CC(=O)Nc1ccc(C)cc1` (stereo not given) was run?
Its Potency is inconclusive [inhibitor, partial curve].

With `Cc1cccc(-n2c(SCC(=O)NCc3ccco3)nnc2-c2ccco2)c1` as the molecule, how does the Potency read?
The Potency was “inactive”.

For `CCNc1nc(NCC)n2c(SCC(=O)Nc3cc(OC)ccc3OC)nnc2n1`, which Potency is on record?
The Potency was inconclusive [inhibitor, full curve, poor fit].

With `O=C(CSC(=S)N1CCCC1)Nc1cc2c(cc1Br)OCCO2` as the molecule, how does the Potency read?
The Potency was inconclusive [inhibitor, full curve, poor fit].

For `O=C(Nc1ccc(Cl)c(Cl)c1)N1CCCCCC1`, which Potency is on record?
Its Potency is “inactive”.

For `CC(=O)Nc1nonc1-c1nnc(SCC(=O)Nc2ccc(C)cc2)n1-c1ccccc1`, which Potency is on record?
Its Potency is “inactive”.

With `CC1CC(OC(=O)C2CCN(S(=O)(=O)c3ccc(F)cc3)CC2)C(=O)O1` (stereo not given) as the molecule, how does the Potency read?
Its Potency is inconclusive [inhibitor, full curve, poor fit].

With `CC1(c2ccccc2)NC(=O)N(CC(=O)Nc2cc(Cl)ccc2N2CCOCC2)C1=O` (stereo not given) as the molecule, how does the Potency read?
Its Potency is inconclusive [inhibitor, full curve, poor fit].

For `CC1(C(=O)NCc2cccnc2)CCC(=O)N1Cc1cccs1` (stereo not given), which Potency is on record?
Its Potency is inconclusive [inhibitor, full curve, poor fit].

For `Fc1ccc(N2Cc3ccsc3C=N2)cc1`, which Potency is on record?
Its Potency is inconclusive [inhibitor, full curve, poor fit].

With `O=C(CSc1nc2c(sc3ccccc32)c(=O)n1Cc1ccccc1)NCC1CCCO1` (stereo not given) as the molecule, how does the Potency read?
The Potency was inconclusive [inhibitor, full curve, poor fit].

With `CC(=O)Oc1ccccc1C(=O)Nc1ccccc1C(=O)N1CCCC1` as the molecule, how does the Potency read?
Its Potency is inconclusive [inhibitor, full curve, poor fit].

Which Potency does the source give for `Cc1n[nH]c(=O)c2c(NC(=O)CSc3nnc(-c4ccco4)n3C)oc(C)c12` here?
Its Potency is inconclusive [inhibitor, full curve, poor fit].

With `C=CCn1c(O)c(N=NC(=S)Nc2ccc(OC)c(Cl)c2)c2ccccc21` as the molecule, how does the Potency read?
The Potency was inconclusive [inhibitor, full curve, poor fit].

`CCOC(=O)N1CCC(NC(=O)c2cc3c(C)nc4ccccc4c3o2)CC1` was tested. Which Potency did it give?
Its Potency is inconclusive [inhibitor, full curve, poor fit].

For `COc1ccccc1C(=O)Nc1ccccc1OCc1cc(=O)n2c(C)csc2n1`, which Potency is on record?
Its Potency is “inactive”.

`CN(C)c1nn(C(=O)Nc2cccc(C(F)(F)F)c2)cc1-c1ccccc1` was tested. Which Potency did it give?
The Potency was inconclusive [inhibitor, single point].

Which Potency does the source give for `Cc1ccc(NC(=S)N(CCC(C)C)C(C)c2ccncc2)c(Cl)c1` (stereo not given) here?
The Potency was “inactive”.

`CCOc1ccc(N(CC(=O)NC2CCCC2)C(=O)CCC(=O)Nc2ccccn2)cc1` was tested. Which Potency did it give?
Its Potency is inconclusive [inhibitor, full curve, poor fit].

`CCOC(=O)c1sc(NC(=O)C(OC(C)=O)c2ccccc2)nc1C` (stereo not given) was tested. Which Potency did it give?
Its Potency is “inactive”.

How did the Potency turn out when `COc1ccc(/C(O)=C2/C(=O)C(=O)N(Cc3cccnc3)C2c2ccncc2)cc1F` (stereo not given) was run?
Its Potency is inconclusive [inhibitor, full curve].

With `CC1=NN(c2ccccc2)C(=O)/C1=C\C=C1/N(C)c2ccccc2C1(C)C` as the molecule, how does the Potency read?
Its Potency is inconclusive [inhibitor, full curve, poor fit].

`CCOC(=O)C1(Cc2ccccc2)CCCN(C(=O)c2cnn(CC)c2)C1` (stereo not given) was tested. Which Potency did it give?
Its Potency is inconclusive [inhibitor, partial curve, poor fit].

Which Potency does the source give for `COc1ccc(CNC(=O)CSCc2nc(-c3ccccc3C)oc2C)cc1` here?
Its Potency is “inactive”.

`COc1cccc(C(=O)Nc2ccc(S(=O)(=O)NCc3ccco3)cc2)c1` was tested. Which Potency did it give?
The Potency was inconclusive [inhibitor, full curve, poor fit].

With `CCCn1nnc2ccccc2c1=O` as the molecule, how does the Potency read?
Its Potency is inconclusive [inhibitor, full curve, poor fit].

For `CN(CCC#N)C(=O)CSc1ncnc2sc(-c3ccccc3)cc12`, which Potency is on record?
The Potency was inconclusive [inhibitor, single point].

`Cc1[nH]c2c(C)cccc2c(=O)c1Br` was tested. Which Potency did it give?
The Potency was inconclusive [inhibitor, full curve].

How did the Potency turn out when `CN=Cc1sc2ccccc2c1O` was run?
Its Potency is inconclusive [inhibitor, full curve, poor fit].

For `Cc1ccc(-n2nc3c(=O)n(CC(=O)c4ccc(F)cc4)nc(C)c3c2C)cc1`, which Potency is on record?
The Potency was inconclusive [inhibitor, full curve, poor fit].

How did the Potency turn out when `O=C1c2ccccc2-c2c1nc1c([n+]2[O-])CCCC1` was run?
Its Potency is inconclusive [inhibitor, full curve, poor fit].

How did the Potency turn out when `CCOc1ccc(-c2ccc(SCC(=O)N3CCN(c4ccccc4)CC3)nn2)cc1` was run?
Its Potency is “inactive”.

With `Cc1ccc(OCCN2C(=O)S/C(=C\c3ccc(C)o3)C2=O)cc1` as the molecule, how does the Potency read?
The Potency was inconclusive [inhibitor, full curve, poor fit].

With `COc1ccc(NC(=O)C(CC(C)C)NS(=O)(=O)c2ccc3c(c2)CCN3C(C)=O)cc1OC` (stereo not given) as the molecule, how does the Potency read?
The Potency was inconclusive [inhibitor, full curve, poor fit].

`Cc1cccc(CCNC(=O)C2CCN(S(=O)(=O)c3c(C)nn(C)c3C)CC2)c1` was tested. Which Potency did it give?
Its Potency is inconclusive [inhibitor, full curve, poor fit].

For `O=C(O)C1C2C=CC(C2)C1C(=O)Nc1nccs1` (stereo not given), which Potency is on record?
The Potency was inconclusive [inhibitor, full curve, poor fit].

Which Potency does the source give for `C=CCOn1c(=O)c(-c2ccc(OC)cc2)[n+]([O-])c2ccccc21` here?
The Potency was inconclusive [inhibitor, full curve, poor fit].

From PubChem BioAssay AID485294 (National Center for Advancing Translational Sciences (NCATS), 2010)
